# Results published in the supplement of paper PMC3334620.
# The full ranking holds about 33,000 sequences; the median of “E-score (-0.5 to 0.5)” is about -0.054, and the highest 2% start at about 0.35. Some of the results follow.
# Target: T1, Stb5 (UniProt P38699)
# T1 sequence: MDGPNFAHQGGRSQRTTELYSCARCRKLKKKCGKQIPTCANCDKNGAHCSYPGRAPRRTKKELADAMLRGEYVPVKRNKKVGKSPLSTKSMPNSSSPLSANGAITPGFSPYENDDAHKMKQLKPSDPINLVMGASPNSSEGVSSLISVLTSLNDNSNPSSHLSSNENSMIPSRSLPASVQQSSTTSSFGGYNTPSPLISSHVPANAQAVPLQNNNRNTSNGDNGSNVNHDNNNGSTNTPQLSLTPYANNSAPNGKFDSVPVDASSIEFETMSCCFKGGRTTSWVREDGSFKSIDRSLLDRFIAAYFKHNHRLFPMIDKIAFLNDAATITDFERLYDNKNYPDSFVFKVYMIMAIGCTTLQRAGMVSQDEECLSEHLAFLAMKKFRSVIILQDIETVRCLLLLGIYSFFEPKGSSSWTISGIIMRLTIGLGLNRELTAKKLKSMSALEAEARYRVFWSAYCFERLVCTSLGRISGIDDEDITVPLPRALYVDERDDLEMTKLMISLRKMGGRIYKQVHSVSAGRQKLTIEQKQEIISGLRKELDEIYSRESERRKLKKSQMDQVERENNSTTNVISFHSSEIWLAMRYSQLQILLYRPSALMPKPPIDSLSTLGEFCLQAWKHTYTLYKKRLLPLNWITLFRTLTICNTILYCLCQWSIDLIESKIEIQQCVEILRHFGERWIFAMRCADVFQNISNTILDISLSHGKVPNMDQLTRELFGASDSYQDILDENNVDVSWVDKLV
# Test: PBM E-score (8-mer binding enrichment) (E-score (-0.5 to 0.5)); higher = stronger / more preferred TF binding; most listed sequences are background and not binding sites
# Conditions: protein concentration: 200 nM; construct: GST-full length
# Method in brief: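 Masliner-normalised scans of fluorescent anti-GST signal were the basis for scoring. That signal came from GST-tagged yeast transcription factors applied at about 100-200 nM to double-stranded universal all-10-mer Agilent arrays on fresh or once-stripped slides. Each ungapped eight-base word, pooled with its reverse complement, received an E-score from the Universal PBM Analysis Suite.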
row,Sequence,PBM E-score
1,ACGTATCA,-0.0805
2,CCGTGTCC,0.11
3,AACTAATA,0.133
4,CCAGGTAA,-0.113
5,TAGAGTAA,-0.0065
6,GTTGGCAA,-0.189
7,AAGGTTCG,-0.0237
8,AGATCAAG,-0.211
9,GCCTAACC,-0.0372
10,TATGTGAA,-0.344
11,CAAAGTCC,0.29
12,CCTTAAGG,-0.0301
13,CGCATACG,-0.0759
14,ATCAGTCC,0.158
15,GGGTTGAA,-0.0859
16,ACCTGCGT,-0.0401
17,CGCTAGGA,-0.0204
18,GATGGGGA,-0.116
19,GAAGTAGC,-0.034
20,AACCACAT,-0.134
21,GTGGCCAA,-0.271
22,GGCCTTTA,0.201
23,CAAAGCCG,0.0133
24,GGGAATCA,-0.0836
25,AAGGGACG,-0.0296

row,Sequence,PBM E-score
1,ACAAAAGT,-0.144
2,TAAAGGCA,-0.241
3,CGAGTAGA,-0.163
4,ACAAAATC,-0.0314
5,ACTTGATG,-0.101
6,CCGAAGGA,0.074
7,CGGCACTC,0.217
8,ATTCAGAA,-0.159
9,AGAGCTAC,-0.219
10,CACGATCC,-0.0649
11,AGGGGCCC,-0.0388
12,GCACAAGC,-0.151
13,CTAATTAG,-0.0467
14,TGATAGCA,-0.00064
15,CTGTCCGC,0.129
16,ATGTAAAT,-0.126
17,AAATGATA,-0.0108
18,GACAACCC,-0.0983
19,GACTTTCA,0.083
20,AGCGGATG,0.163
21,ATACACGG,0.0218
22,TAGGTTAA,0.0883
23,CAACCGCC,0.137
24,GGGACAAA,0.13
25,CTCCAGAC,-0.272

row,Sequence,PBM E-score
1,CGGTTCCC,0.0995
2,CTTATGTC,0.0195
3,TCCGTTAA,0.254
4,AAGCGCTT,0.0365
5,CCGAGACA,0.0635
6,CCGTATAC,0.083
7,CATGGCCC,-0.0254
8,ATCCGGTG,0.34
9,ACTATTCA,-0.084
10,CGGTGCAC,0.0634
11,CTATAGCC,0.15
12,GCAAGGTA,-0.158
13,GGATACAA,0.0748
14,CCTATGAA,-0.0593
15,CAGCCCCA,-0.36
16,AGACATTA,-0.00865
17,GAGTCTCA,-0.0838
18,TGGGGACA,-0.208
19,CAAAGGCG,-0.0234
20,ATTGTGAA,-0.177
21,CGGACCGA,0.4
22,CCTTAAAC,0.153
23,ACCTCGAG,-0.0292
24,CACCGCGG,0.419
25,ACCTCACA,-0.181

row,Sequence,PBM E-score
1,CATTATTA,0.0171
2,CCATTAGG,-0.24
3,GTCGTTGA,-0.0459
4,AACATTCA,-0.139
5,GGCGGCCC,0.297
6,CGAACGAG,-0.1
7,CGAGAGAG,0.0636
8,AATACGAC,-0.0666
9,AATCTGGA,-0.0549
10,AGCGGCTC,0.204
11,CCGGATAC,0.15
12,AATACATC,0.226
13,GGCCATAA,0.156
14,ACTTACTA,-0.149
15,ATACCCCA,-0.0468
16,CTTTCTAA,-0.00241
17,AAATCCCT,-0.0732
18,CAAGATCA,-0.133
19,ACCCCACC,0.182
20,AGGATCAA,-0.126
21,ATAATCTG,-0.144
22,CGACTCAG,-0.137
23,AGTCGCGA,-0.0369
24,TAGTGTGA,-0.284
25,AGCTATCC,-0.0553

row,Sequence,PBM E-score
1,CTACACGC,-0.212
2,CTGTACTA,-0.082
3,ACAAATGG,-0.217
4,AAGTTACA,-0.203
5,CACATGGC,-0.022
6,GATTAAAA,0.0759
7,AGAAGACC,0.0271
8,AGGTTCAT,-0.193
9,CGTAACTC,0.073
10,CCGCGTGC,0.193
11,CATACCAC,-0.047
12,CCCTGGAA,-0.0335
13,AGCACGGA,0.0905
14,CGTTGTCC,-0.0582
15,ACACACCC,0.0669
16,ACGTATCC,-0.0573
17,TGGATAAA,0.0988
18,CCCGGGAC,0.313
19,CTTGTGTC,0.0484
20,TCACAAAA,0.0716
21,TCCATAGA,-0.0154
22,GTACACTA,-0.0679
23,CCTGCCGA,-0.089
24,CTATGGCC,0.0987
25,CCCGAGGC,0.174

row,Sequence,PBM E-score
1,ATGCCAAG,-0.174
2,ACGGGTTA,0.0414
3,CCAACTCG,-0.131
4,CCGCAAAC,0.139
5,TACCCAAA,-0.283
6,CTGAGTTC,-0.145
7,GGGGTGAC,0.0132
8,CTCACTCC,-0.0219
9,GCACGCGA,-0.17
10,CTAAGTCC,0.245
11,ATCAATCC,0.0187
12,ACGAGGTA,-0.0801
13,AAATATTA,-0.0821
14,CCGTCGAA,0.201
15,CCCCATAG,-0.0805
16,GTGGACAC,-0.0799
17,CCGATTGC,0.241
18,CATATTTC,-0.0136
19,CAACAATG,-0.0552
20,CGTTCCCA,-0.107
21,AGCATCAG,-0.0401
22,ATAGTCCA,-0.12
23,CTTGAAAG,-0.149
24,CTATAGGC,-0.0578
25,GCGCGAGC,0.0731

row,Sequence,PBM E-score
1,CCACCGAG,0.0738
2,ACTTGTAT,-0.218
3,GGGCAACC,-0.00547
4,ACACTATG,-0.13
5,AGCTCAAG,-0.295
6,AAAGTCCT,0.108
7,ACGCAAAG,-0.0493
8,GTGTCTAA,-0.105
9,ACGACTTG,-0.282
10,GTCCTATA,0.211
11,CATGAAGA,-0.0479
12,AAGGGAGT,-0.11
13,AACGTGGA,-0.262
14,AAATGCAA,-0.0569
15,CGACGATA,0.0169
16,AGACGAAG,-0.146
17,AGTTCTGA,-0.18
18,ATTCCGGG,0.17
19,AGGTAATC,0.0868
20,CGCGTATC,0.122
21,ATAAGACA,-0.113
22,TGGGAACA,-0.159
